Measured values published in PubChem BioAssay (NCATS).
Several values for one entry are separate records, joined by “and”; a condition that tells them apart may be missing. Equal values may be shown once. The shares of active, inactive and inconclusive entries below differ from those in the screen. Potencies of inconclusive entries are doubtful fits and often do not repeat. Activity calls are given as the source filed them. Calls follow the shape of the dose curve; as a rule, active = well fitted cell-killing curve with a large enough effect; inconclusive = small, poorly fitted or top-dose-only effect, or effect the other way; inactive = no such curve, though single readings can be large or run the other way.

Key:
[1] = Viability qHTS for spleen associated tyrosine kinase inhibitor (SYKi) naive MV4-11 cells (AID 1963823); conditions: MV4-11 AML viability, CellTiter-Glo luminescence, 72 h; viability (% of control): at 45 µM (top of the series); also: nearly all actives have a fitted effect of over 40% in size
Outline: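 In this viability screen, compounds acted on SYK inhibitor naive MV4-11 cells for three days (72 hr, 37 C). Remaining viable cells were measured by CellTiter-Glo luminescence following a 10 min room-temperature development.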

[2] = Viability qHTS for spleen associated tyrosine kinase inhibitor (SYKi) drug resistant MV4-11 cells (AID 1963824); conditions: SYKi-resistant MV4-11 viability, CellTiter-Glo, 72 h; series mostly up to 45 µM; also: nearly all actives have a fitted effect of over 35% in size
Outline: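 SYK inhibitor-resistant MV4-11 AML cells, 500 per well, added to predispensed compounds and incubated 72 hr at 37 C, 5% CO2. Viability measured by CellTiter-Glo luminescence after 10 min at room temperature.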
Potency is read from the fitted curve at half-maximal effect; tags tell the direction and shape of the fitted curve.

Row | Structure (SMILES) | Potency [1] | Potency [2] | viability, % of control [2]
1 | Cc1cc(C)c(S(=O)(=O)n2cc(C)cc2C)c(C)c1 | inconclusive: 14.6 µM [cytotoxic, partial curve] | inconclusive: 25.9 µM [cytotoxic, single point] | 
2 | Fc1ccccc1-c1nc2ccn(Cc3ccc(-c4ccc(C(F)(F)F)cc4C(F)(F)F)nn3)cc-2n1 | inconclusive: 8.2 µM [cytotoxic, partial curve, poor fit] | inconclusive: 18.4 µM [cytotoxic, single point] | 
3 | CC1OC(OC2CCC3(C)C(CCC4(C)C3C=CC35OCC6(CCC(C)(C)CC63)CCC45C)C2(C)CO)C(OC2OC(CO)C(O)C(O)C2O)C(O)C1OC1OC(CO)C(O)C(O)C1O (stereo not given) | inconclusive: 6.93 µM [cytotoxic, single point] | inconclusive: 5.51 µM [cytotoxic, partial curve] | 
4 | CCC1(c2ccccc2)C(=O)NCNC1=O | inactive | inactive | 
5 | OC1CCC(Nc2nc(-c3ccccc3)nc3[nH]ccc23)CC1 (stereo not given) | inconclusive: 20.6 µM [cytotoxic, partial curve] | inconclusive: 18.4 µM [cytotoxic, single point] | 
6 | COc1ccccc1-c1c[nH]c2ncc(-c3cncc(C(=O)N(C)C)c3)cc12 | inconclusive: 1.64 µM [cytotoxic, full curve] | active: 1.84 µM | 
7 | Cc1cccc(-c2[nH]ncc2-c2ccnc3ccccc23)n1 | inconclusive: 16.4 µM [cytotoxic, partial curve] | active: 16.4 µM | 
8 | N#Cc1cc(-c2n[nH]c(-c3ccncc3)n2)ccn1 | inactive | inactive | 
9 | CC(=O)OC1C(OC(=O)c2ccccc2)C2C(C)(C)CCC(OC(C)=O)C2(C)C23CCC(C)(C2)C(=O)CC13 (stereo not given) | inconclusive: 7.09 µM [cytotoxic, partial curve] | active: 10 µM | 
10 | C/C1=C\CCC(C)CCO[C@@H]2O[C@H](CO[C@@H]3OC[C@H](O)[C@H](O)[C@H]3OC1=O)[C@@H](O)[C@H](O)[C@H]2O (stereo not given in full) | inconclusive: 3.17 µM [cytotoxic, single point] | inconclusive: 3.99 µM [cytotoxic, single point] | 
11 | COCCCNC(=O)c1ccc(Cn2c(=O)c3ccccc3n(Cc3ccc(C(C)C)cc3)c2=O)cc1 | inconclusive: 4.11 µM [cytotoxic, full curve] | inconclusive: 5.8 µM [cytotoxic, full curve, poor fit] | 
12 | C[C@H](NC(c1cccc(C[P+](=O)O)c1)[C@H](C)O)c1ccc(Cl)c(Cl)c1 (stereo not given in full) | inconclusive: 10.3 µM [cytotoxic, partial curve, poor fit] | inactive | 
13 | CC(=O)O[C@@H]1C[C@@H](C)[C@](O)(CCC2=CC(=O)OC2)[C@@]2(C)CCCC(C)(C)C12 (stereo not given in full) | inconclusive: 11.4 µM [cytotoxic, single point] | inconclusive: 14.3 µM [cytotoxic, partial curve] | 
14 | C/C=C(\C)C(=O)OC[C@H]1O[C@H](O[C@H]2O[C@H](CO)[C@@H](OC(=O)/C(C)=C/C)[C@H](O)[C@H]2O[C@@H]2O[C@H](CO)[C@@H](O)[C@H](O)[C@H]2O)[C@H](O[C@@H]2O[C@H](CO)[C@@H](O)[C@H](O)[C@H]2O)[C@@H](O)[C@@H]1O | inconclusive: 4.91 µM [cytotoxic, single point] |  | inactive: 92.1% [at 9.25 µM]
15 | CC1(C)CC[C@]2(C(=O)O[C@@H]3O[C@H](CO)[C@@H](O)[C@H](O)[C@H]3O)CC[C@]3(C)C(=CCC4[C@@]5(C)C[C@@H](O)[C@H](O)[C@@](C)(CO)C5CC[C@]43C)C2C1 (stereo not given in full) | inactive | inactive | 
16 | C[C@H](Nc1cc2c(-c3ccc4c(c3)OCO4)noc2cn1)c1ccccc1 | inconclusive: 6.51 µM [cytotoxic, partial curve] | inconclusive: 7.31 µM [cytotoxic, partial curve] | 
17 | O=C(Nc1c(-c2cccs2)nc2ccccn12)c1ccc(Cl)cc1 | inconclusive: 14.6 µM [cytotoxic, partial curve] | inconclusive: 29.1 µM [cytotoxic, single point] | 
18 | COc1c2c(cc3c1-c1c(cc4c(c1OC)OCO4)CC(C)C(C)C3)OCO2 (stereo not given) | inconclusive: 20.2 µM [cytotoxic, single point] | inconclusive: 12.8 µM [cytotoxic, partial curve] | 
19 | COc1ccc2c(c1)CC[C@@H]1[C@@H]2CC[C@]2(C)[C@@H](NCCCCCCN3C(=O)C=CC3=O)CC[C@@H]12 | inconclusive: 1.18 µM [cytotoxic, full curve] | active: 5.25 µM | 
20 | COCCNCc1ccc(-c2cc3nccc(Oc4ccc(NC(=S)NC(=O)Cc5ccc(F)cc5)cc4F)c3s2)nc1 | active: 16.4 nM and inconclusive: 33.2 nM [cytotoxic, full curve] | inconclusive: 0.0742 µM [cytotoxic, full curve] | 

Row | Structure (SMILES) | Potency [1] | Potency [2] | viability, % of control [2]
21 | Cc1cc(NC(=O)NCCN2CCC(O)(Cc3ccccc3)CC2)c2ccccc2n1 | inconclusive: 18.4 µM [cytotoxic, partial curve, poor fit] | inconclusive: 11.6 µM [cytotoxic, partial curve] | 
22 | Cc1ncc(COP(=O)(O)O)c(C=O)c1O | inactive | inactive | 
23 | CCOc1ccc(/C=C2\SC(=O)N(CCN)C2=O)cc1 | inconclusive: 16.4 µM [cytotoxic, single point] | inconclusive: 29.1 µM [cytotoxic, single point] | 
24 | CCN(CC)CCOCCOC(=O)C1(c2ccccc2)CCCC1 | inconclusive: 29.9 µM [cytotoxic, single point] | inconclusive: 26.6 µM [cytotoxic, partial curve, poor fit] | 
25 | OC[C@H]1O[C@@H](O[C@@H]2[C@@H](CO)O[C@](O)(CO)[C@H]2O)[C@H](O)[C@@H](O)[C@H]1O | inconclusive: 33.5 µM [cytotoxic, single point] and inactive | inconclusive: 33.5 µM [cytotoxic, single point] | 
26 | C=C1CC[C@@]2(OC1)O[C@H]1CC3[C@@H]4CC=C5C[C@@H](O)C[C@@H](O[C@@H]6OC[C@H](O)[C@H](O)[C@H]6O[C@@H]6O[C@@H](C)[C@H](O)[C@@H](O)[C@H]6O)[C@]5(C)C4CC[C@]3(C)[C@H]1[C@@H]2C (stereo not given in full) | inconclusive: 5.44 µM [cytotoxic, single point] | inconclusive: 9.68 µM [cytotoxic, single point] | 
27 | CC(C)NCCCC1(C(N)=O)c2ccccc2-c2ccccc21 | inactive | inactive | 
28 | CC(=O)O[C@H]1[C@H](O)C[C@@]2(C)C(CC[C@]3(C)C2CC=C2C4CC(C)(C)CC[C@]4(C(=O)O)CC[C@]23C)C1(C)C (stereo not given in full) | inconclusive: 1.59 µM [cytotoxic, full curve, poor fit] | inconclusive: 3.17 µM [cytotoxic, partial curve] | 
29 | C/C=C1/[C@H](O[C@@H]2O[C@H](CO)[C@@H](O)[C@H](O)[C@H]2O)OC=C2C(=O)O[C@@H]3C[C@@H](C(C)CO)[C@H](COC(=O)C[C@H]21)[C@H]3C (stereo not given in full) | inconclusive: 10 µM [cytotoxic, partial curve, poor fit] | inconclusive: 10 µM [cytotoxic, single point] | 
30 | O=C(O)c1cccc(-c2ccc(-c3cn(C(=O)N4CCCCC4Cc4ccccc4)nn3)cc2)c1 (stereo not given) | inconclusive: 20.6 µM [cytotoxic, partial curve] | inconclusive: 14.6 µM [cytotoxic, partial curve] | 
31 | CNCc1ccc(-c2cc(-c3nc(-c4ccc(S(=O)(=O)C(C)C)cc4)cnc3N)on2)cc1 | active: 259 nM and inconclusive: 209 nM [cytotoxic, full curve] | inconclusive: 0.263 µM [cytotoxic, full curve] | 
32 | NC(CO)(CO)CO | inactive | inconclusive: 0.237 µM [cytotoxic, single point] | 
33 | CC(C)[N+]1(C)C2CCC1CC(OC(=O)C(CO)c1ccccc1)C2 (stereo not given) | inconclusive: 4.61 µM [cytotoxic, single point] | inconclusive: 2.31 µM [cytotoxic, partial curve, poor fit] | 
34 | CC(c1c[nH]c2ccccc12)C(O)C(=O)O (stereo not given) | inactive | inactive | 
35 | CC(OC1OCCN(Cc2n[nH]c(=O)[nH]2)C1c1ccc(F)cc1)c1cc(C(F)(F)F)cc(C(F)(F)F)c1 (stereo not given) | active: 9.2 µM | active: 5.8 µM | 
36 | O=C1NCCCc2c1oc1ccc(O)cc21 | inconclusive: 14.6 µM [cytotoxic, partial curve] | inconclusive: 23.1 µM [cytotoxic, single point] | 
37 | COc1ccc(CCN(C)CCCN2CCc3cc(OC)c(OC)cc3CC2=O)cc1OC | inactive | inconclusive: 23.7 µM [cytotoxic, single point] | 
38 | CCN1CCC[C@H]1CNC(=O)c1c(O)c(Cl)cc(Cl)c1OC | inconclusive: 0.0009 µM | inconclusive: 0.0009 µM | 
39 | CCC(C)/C=C(C)/C=C/C1=CC2=C(Cl)C(=O)C(C)(OC(C)=O)C(=O)C2=CN1C(CC(=O)O)C(=O)O (stereo not given) | inactive | inconclusive: 3.55 µM [cytotoxic, partial curve, poor fit] | 
40 | Nc1ncnc2c1c(-c1ccc(Cl)cc1)nn2-c1cccc(-c2cnnn2Cc2cccc(-c3ccccc3)c2)c1 | inconclusive: 4.11 µM [cytotoxic, single point] | inconclusive: 3.26 µM [cytotoxic, full curve, poor fit] | 
